# Reference: paper PMC4336329 (PLoS ONE, 2015)
# Screen size: about 310,000 compounds; about 2,200 (0.71%) showed an effect of 50% or more. Effects have a minus sign here. The list shows a part of the results.
# Molecular target: human ether-à-go-go-related gene (hERG) potassium channel (human, UniProt Q12809)
# Assay: primary screen, population patch clamp on CHO cells stably expressing hERG
# Sequence of human ether-à-go-go-related gene (hERG) potassium channel (Q12809 whole entry, looked up): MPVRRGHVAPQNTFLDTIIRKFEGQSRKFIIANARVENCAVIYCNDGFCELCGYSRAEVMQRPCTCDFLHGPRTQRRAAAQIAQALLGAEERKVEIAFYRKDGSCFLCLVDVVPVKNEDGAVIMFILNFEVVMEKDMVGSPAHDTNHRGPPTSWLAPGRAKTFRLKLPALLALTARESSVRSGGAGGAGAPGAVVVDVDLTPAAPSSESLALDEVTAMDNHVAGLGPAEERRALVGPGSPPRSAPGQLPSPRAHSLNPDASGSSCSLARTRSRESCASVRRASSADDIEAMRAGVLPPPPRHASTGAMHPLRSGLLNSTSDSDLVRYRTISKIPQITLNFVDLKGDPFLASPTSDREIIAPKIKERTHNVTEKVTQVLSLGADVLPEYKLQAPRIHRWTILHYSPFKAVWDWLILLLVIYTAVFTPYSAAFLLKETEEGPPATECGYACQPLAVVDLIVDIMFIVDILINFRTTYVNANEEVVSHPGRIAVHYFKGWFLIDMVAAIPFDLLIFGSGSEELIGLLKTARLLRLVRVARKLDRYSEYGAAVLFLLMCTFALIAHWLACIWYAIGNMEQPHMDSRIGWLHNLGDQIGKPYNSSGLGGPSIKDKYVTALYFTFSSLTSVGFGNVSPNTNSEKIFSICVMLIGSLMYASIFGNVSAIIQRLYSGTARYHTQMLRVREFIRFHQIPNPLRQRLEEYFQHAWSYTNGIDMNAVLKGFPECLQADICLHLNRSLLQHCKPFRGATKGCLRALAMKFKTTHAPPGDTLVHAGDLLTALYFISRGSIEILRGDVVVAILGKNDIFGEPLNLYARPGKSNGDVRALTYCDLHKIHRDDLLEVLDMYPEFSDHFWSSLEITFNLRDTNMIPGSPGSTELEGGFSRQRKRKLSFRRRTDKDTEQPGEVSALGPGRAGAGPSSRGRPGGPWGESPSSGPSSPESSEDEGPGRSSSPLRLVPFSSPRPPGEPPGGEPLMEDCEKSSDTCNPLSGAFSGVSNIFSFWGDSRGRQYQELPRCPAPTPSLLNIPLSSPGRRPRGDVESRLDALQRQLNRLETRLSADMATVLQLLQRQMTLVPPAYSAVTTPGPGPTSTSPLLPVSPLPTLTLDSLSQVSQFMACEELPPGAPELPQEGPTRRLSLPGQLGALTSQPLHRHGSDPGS
row,Compound,"hERG current change (%, negative = inhibition) at 1uM"
1,COc1cc2c(cc1OC)CN(C(=O)C1CCC(=O)N(CCCN3CCOCC3)C1)CC2 (centres unmarked),14.4%
2,O=C(Nc1ccccc1)N(CCCN1CCOCC1)Cc1cccs1,-29.2%
3,Cc1cccc(-c2nc(CS(=O)CC(=O)NCc3cccs3)c(C)o2)c1 (centres unmarked),1.55%
4,CC1CCCC(C(=O)O)N1C(=O)CCS (centres unmarked),-6.86%
5,CC(=O)Nc1ccc(-c2nc3ccc(NC(C)=O)cc3o2)cc1,16.1%
6,Cc1ccc(NC(=S)Nc2ccc(S(=O)(=O)Nc3ncccn3)cc2)cc1Cl,11.2%
7,Cc1ccccc1C(=O)NC1CCN(C(=O)N(c2ccccc2)c2ccccc2)CC1,5.04%
8,CC(C)(C)C(=O)COC(=O)c1cc(S(=O)(=O)N2CCCCC2)ccc1N1CCOCC1,1.17%
9,CCOC(=O)CN=C/C(C(C)=O)=C(/C)O,17.4%
10,Cc1cc(Cl)ccc1OC(C)c1nnc(N)s1 (centres unmarked),5.15%
11,O=c1c(Cc2c(F)cccc2Cl)c(O)ccn1CCc1c[nH]c2ccccc12,6.54%
12,Nc1ccc(Cl)c(S(=O)(=O)Nc2ccccc2Cl)c1,8.84%
13,COC(=O)CN1CC(=O)N(c2ccccc2)C1=S,13%
14,CC(C)CC(C(=O)N1CCc2ccccc2C1)N1C(=O)c2ccccc2C1=O (centres unmarked),7.47%
15,COc1cccc(C(=O)COC(=O)C2CC3CCCC(C2)C3=O)c1 (centres unmarked),12%
16,Cc1nnc(NC(=O)C2CSC3(C)CCC(=O)N23)s1 (centres unmarked),11.9%
17,O=C(COC(=O)c1ccccn1)c1cccc(Br)c1,9.34%
18,Cc1ccc(NS(=O)(=O)c2c(C)nc3sccn3c2=O)c(C)c1,-8.71%
19,COC(=O)c1ccccc1NC(=S)NC(=O)C1CC1,-17.2%
20,N#Cc1ccc(N/N=C/c2ccccc2)c([N+](=O)[O-])c1,6.08%
21,O=C(NCc1cc([N+](=O)[O-])ccc1O)c1cccnc1Sc1ccc(Cl)cc1,16.3%
22,O=C(O)C1CC=CCC1C(=O)Nc1ccc(Oc2ccc(Cl)cc2)cc1 (centres unmarked),13.5%
23,COc1ccc(C(=O)COC(=O)Cc2c[nH]c3ccccc23)c(OC)c1,9.86%

row,Compound,"hERG current change (%, negative = inhibition) at 1uM"
1,COc1ccc(CCNc2oc(COc3ccc(Br)cc3)nc2C#N)cc1OC,1.63%
2,CCCN1CN(c2ccccc2)C(=S)N(c2ccccc2)C1,17%
3,COCCN1C(=O)c2oc3cc(C)c(C)cc3c(=O)c2C1c1ccc(O)cc1 (centres unmarked),18.2%
4,COc1ccc(N2C(=O)NC(=O)/C(=C/c3ccc([N+](=O)[O-])s3)C2=O)cc1,12.9%
5,O=C(Cc1ccc(N(CCCl)CCCl)cc1)NC(Cc1ccc(Cl)cc1)C(=O)O (centres unmarked),10.5%
6,CCn1c(SCC(=O)NCc2ccco2)nnc1-c1ccc(N)cc1,11.5%
7,CCOc1ccc(N(CC(=O)NCCc2ccccc2)C(=O)CCC(=O)Nc2nccs2)cc1,-4.07%
8,COc1cc(CCC(=O)OCC(=O)Nc2cccc(S(N)(=O)=O)c2)cc(OC)c1OC,16.9%
9,O=C(CN1CCCC1c1cccs1)Nc1cccc(S(=O)(=O)N2CCCC2)c1 (centres unmarked),17.6%
10,O=C(N/C=C/c1ccc(Cl)cc1)NCc1ccc(Cl)cc1,6.83%
11,CCC1CCC2(CC1)NC(=O)N(CC(=O)Nc1cccc(S(=O)(=O)N(C)c3ccccc3)c1)C2=O (centres unmarked),0.767%
12,COc1ccc(N(CC(=O)NC2CCCCC2)S(=O)(=O)c2c(C)[nH]c(=O)[nH]c2=O)cc1,15.2%
13,O=C(O)CCc1ccc(S(=O)(=O)N2CCOCC2)cc1,10.4%
14,C=CCn1c(C)nnc1SCC(=O)N1CCN(S(=O)(=O)c2ccccc2)CC1,14.8%
15,NC(=O)C1CCN(C(=O)COc2ccc3c4c(c(=O)oc3c2)CCCC4)CC1,10.2%
16,Cc1ccc(-c2nn(-c3ccccc3)cc2/C=C/C(=O)Nc2nccs2)cc1,10.5%
17,Cc1ccc(S(=O)(=O)NCCNc2ccc([N+](=O)[O-])cc2C(F)(F)F)cc1,7.37%
18,CCn1nc(C)c(NC(=O)Nc2cccc(Cl)c2Cl)c1C,19.6%
19,Nc1ccccc1C(=O)NCCCN1CCN(c2cccc(Cl)c2)CC1,-49.6%
20,CCOC(=O)c1c2ccccc2[n+]([O-])n1CCO,6.51%
21,Cc1oc2c(c1C(=O)NCCCC(=O)O)CCCC2,10.4%
22,O=C(Nc1cc(S(=O)(=O)Nc2ccccc2Cl)ccc1O)c1sc2cc(Cl)ccc2c1Cl,15.4%
23,Cn1nc(C(=O)Nc2ccc(Cl)cc2)cc1C(=O)Nc1ccc(Cl)cc1,18.6%

row,Compound,"hERG current change (%, negative = inhibition) at 1uM"
1,N#Cc1sc2nc3c(c(-c4ccco4)c2c1N)CCCC3,1.78%
2,Oc1ccccc1-c1cc(-c2ccc3c(c2)OCCO3)n[nH]1,10.5%
3,CC(=O)Nc1ccc(S(=O)(=O)N2CCN(S(=O)(=O)N3CCC(C)CC3)CC2)cc1,12.7%
4,COc1cccc(CNC(=O)CCCCCn2c(=S)[nH]c3ccc(N4CCOCC4)cc3c2=O)c1,5.25%
5,CC(C)Oc1cccc(C(=O)C2CCCN(C(=O)c3csnn3)C2)c1 (centres unmarked),7.94%
6,CC1CCCCN1CC(=O)Nc1ccc2c(c1)OC(F)(F)O2 (centres unmarked),13.7%
7,O=C(NCCCN1CCCCCC1)C1CCCN(S(=O)(=O)c2cccc3nsnc23)C1 (centres unmarked),5.76%
8,Cc1c(NC(=O)Nc2ccccc2)cccc1[N+](=O)[O-],10.3%
9,CCN(CC)CCN1C(=O)c2cccc3cc(N)cc(c23)C1=O,-0.692%
10,O=C(CSc1nnc(-c2ccccc2)o1)NC1CCS(=O)(=O)C1 (centres unmarked),5.79%
11,CCOc1ccc(C(=O)N/N=C/c2c(C)[nH]c(=O)[nH]c2=O)cc1,12.5%
12,NS(=O)(=O)c1ccc(CCNC(=O)Cn2c(=O)c3cccn3c3cccnc32)cc1,14.5%
13,O=C1N(C2CCCC2)C[C@@H]2C[C@@H](c3cccn3-c3ccccn3)N3CCC[C@@]123,-28.9%
14,C=CCn1c(SCc2ccccc2C#N)nnc1-c1ccccc1O,-16%
15,O=c1c2ccccc2nc(SCc2cc([N+](=O)[O-])cc3c2OCOC3)n1-c1ccccc1,5.2%
16,COc1ccccc1N1C(=O)C2C3C=CC(C3)C2C1=O (centres unmarked),4.19%
17,NC(=O)Nc1ccc(Cl)cc1,7.6%
18,CCn1c(-c2cccnc2Cl)nc2cc(Cl)c(Cl)cc21,-6.16%
19,COc1c(C)cc(C(=O)C2CCCN(C(=O)c3cc(C4CC4)[nH]n3)C2)cc1C (centres unmarked),6.63%
20,Cc1cccc(C(=O)NCC(=O)N2CCC2)c1,11.3%
21,O=C(NCc1ccccc1)C12CC3CC(CC(Br)(C3)C1)C2,9.31%
22,Cc1[nH]n(-c2ccccc2)c(=O)c1N=Nc1ccccc1,7.53%
23,CC(C)(C)c1nnc(NC(=O)c2ccc3c(c2)OCO3)s1,13.1%

row,Compound,"hERG current change (%, negative = inhibition) at 1uM"
1,O=C(NCCc1ccccc1)/C(=C\c1ccccc1)NC(=O)c1ccco1,9.3%
2,Cc1cc(CNC(=S)Nc2ccc(Br)cc2Cl)nn1C,-19%
3,CC(=O)Nc1ccc(C(=O)OCC(=O)c2cccc([N+](=O)[O-])c2)cc1,7.97%
4,CCC(C(=O)NCc1ccc(F)cc1)n1nc(C)n2c(cc3occc32)c1=O (centres unmarked),5.24%
5,Cn1ccc(-c2cc(C(=O)O)c3ccccc3n2)n1,19.3%
6,COc1ccc(-c2nnc(N(C)C(=O)c3ccco3)s2)cc1OC,12.4%
7,O=C1Nc2cccnc2Sc2ccccc21,12.2%
8,O=C1C(Nc2ccccc2)=CC(c2ccc(O)cc2)N1c1ccccc1 (centres unmarked),12.6%
9,O=C(CSc1nnc(CNc2ccc(F)cc2)n1Cc1ccco1)NC1CC1,8.16%
10,Nc1nc(-c2ccco2)cs1,12.4%
11,Cn1c(CCNS(=O)(=O)c2ccccc2)nc2cc([N+](=O)[O-])ccc21,8.07%
12,C[C@H](NC(=O)c1ccccc1Cl)C(=O)OCCOc1ccc(Cl)cc1,6.73%
13,O=C(c1ccc(N2CCN(C(=O)c3ccc(F)c(F)c3)CC2)cc1)c1cccc(F)c1,-13.2%
14,Cc1ccc2oc(/N=C(\N)NC(=O)C3CC3)nc2c1,14.7%
15,CC[n+]1c(P(=O)([O-])c2ccccc2)[nH]c2ccccc21,-11.7%
16,O=C(Cn1ncn2c(cc3ccccc32)c1=O)NCCc1cccs1,3.23%
17,CCN1CCN(c2ccc(S(=O)(=O)N3CCOCC3)cc2NC(=O)CCC(C)C)CC1,-8.46%
18,CNC(=O)Nc1ccc(C(=O)N/N=C\C23CC[C@@H](O)CC2(O)CC[C@@H]2[C@@H]3CCC3(C)C(C4=CC(=O)OC4)CCC23O)cc1 (some centres unmarked),5.23%
19,O=C(Nc1cccc(F)c1)c1cccnc1,8.69%
20,Cc1cc(=O)oc2cc(OCC(=O)Nc3ccc(CN4CCOCC4)cc3)ccc12,12.5%
